Reference: the supplement of paper PMC12217912
The list shows a part of the results. Sequences were assembled here from the parent chain. Inactive controls read about 0.05.

B1: TEV protease; numbered along this chain (parent)
chain: MGESLFKGPRDYNPISSSICHLTNESDGHTTSLYGIGFGPFIITNKHLFRRNNGTLVVQSLHGVFKVKDTTTLQQHLVDGRDMIIIRMPKDFPPFPQKLKFREPQREERICLVTTNFQTKSMSSMVSDTSCTFPSGDGIFWKHWIQTKDGQCGSPLVSTRDGFIVGIHSASNFTNTNNYFTSVPKNFMELLTNQEAQQWVSGWRLNADSVLWGGHKVFMVKPEEPFQPVKEATQL

Variants of: B1
Assay: raw area under fraction-flipped curve 0-4 h after induction (AUC4h, not background-subtracted), DNA-recorder readout of cleavage of the substrate (dimensionless); higher = more cleavage of the substrate by the protease variant
Settings: temperature: 34 °C; time window: 0-4 h after rhamnose induction
Protocol: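 In vivo DNA recorder in E. coli TOP10(DE3) ΔrhaA at 34 °C. Each TEVp single-site mutant (parent TEVp 0) is paired with a single-site variant of the 7-mer TEVs (canonical ENLYFQ|S). The substrate sits between flexible linkers in a Bxb1-sfGFP-TEVs-SsrA fusion, so cleavage stabilises Bxb1 and speeds flipping of a recombination array, read by NGS. The value is the raw area under the fraction-flipped curve over 0-4 h after rhamnose induction (AUC4h), with ≥20 reads per time point. It is not background-subtracted; inactive controls average about 0.047.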
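Further: Bxb1 expression induced with 0.2% (w/v) L-rhamnose at OD600 near 0.5, cultures sampled hourly, flipped fraction per protease–substrate barcode pair counted by paired-end Illumina sequencing.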

## MGESLFKGPRDYNPISSSICHLTNESDGHTTSLYGIGFGPFIITNKHLFRRNNGTLVVQSLHGVFKVKYTTTLQQHLVDGRDMIIIRMPKDFPPFPQKLKFREPQREERICLVTTNFQTKSMSSMVSDTSCTFPSGDGIFWKHWIQTKDGQCGSPLVSTRDGFIVGIHSASNFTNTNNYFTSVPKNFMELLTNQEAQQWVSGWRLNADSVLWGGHKVFMVKPEEPFQPVKEATQL [D69Y]
  area with substrate ENLAFQS: 0.0552
  area with substrate ENLEFQS: 0.0477
  area with substrate ENLFFQS: 0.0866
  area with substrate ENLGFQS: 0.0834
  area with substrate ENLKFQS: 0.0713
  area with substrate ENLNFQS: 0.048
  area with substrate ENLSFQS: 0.0631
  area with substrate ENLWFQS: 0.0623

## MGESLFKGPRDYNPISSSICHLTNESDGHTTSLYGIGFGPFIITNKHLFRRNNGTLVVQSLHGVFKVKDNTTLQQHLVDGRDMIIIRMPKDFPPFPQKLKFREPQREERICLVTTNFQTKSMSSMVSDTSCTFPSGDGIFWKHWIQTKDGQCGSPLVSTRDGFIVGIHSASNFTNTNNYFTSVPKNFMELLTNQEAQQWVSGWRLNADSVLWGGHKVFMVKPEEPFQPVKEATQL [T70N]
  area with substrate ENLAFQS: 0.0502
  area with substrate ENLCFQS: 0.0581
  area with substrate ENLDFQS: 0.0451
  area with substrate ENLEFQS: 0.0488
  area with substrate ENLFFQS: 0.0554
  area with substrate ENLNFQS: 0.0647
  area with substrate ENLPFQS: 0.0639
  area with substrate ENLRFQS: 0.0706
  area with substrate ENLWFQS: 0.063

## MGESLFKGPRDYNPISSSICHLTNESDGHTTSLYGIGFGPFIITNKHLFRRNNGTLVVQSLHGVFKVKDTKTLQQHLVDGRDMIIIRMPKDFPPFPQKLKFREPQREERICLVTTNFQTKSMSSMVSDTSCTFPSGDGIFWKHWIQTKDGQCGSPLVSTRDGFIVGIHSASNFTNTNNYFTSVPKNFMELLTNQEAQQWVSGWRLNADSVLWGGHKVFMVKPEEPFQPVKEATQL [T71K]
  area with substrate ENLAFQS: 0.0424
  area with substrate ENLDFQS: 0.0565
  area with substrate ENLEFQS: 0.0629
  area with substrate ENLFFQS: 0.077
  area with substrate ENLKFQS: 0.11
  area with substrate ENLPFQS: 0.0535
  area with substrate ENLQFQS: 0.0639
  area with substrate ENLRFQS: 0.0794
  area with substrate ENLTFQS: 0.0505
  area with substrate ENLVFQS: 0.086

## MGESLFKGPRDYNPISSSICHLTNESDGHTTSLYGIGFGPFIITNKHLFRRNNGTLVVQSLHGVFKVKDTRTLQQHLVDGRDMIIIRMPKDFPPFPQKLKFREPQREERICLVTTNFQTKSMSSMVSDTSCTFPSGDGIFWKHWIQTKDGQCGSPLVSTRDGFIVGIHSASNFTNTNNYFTSVPKNFMELLTNQEAQQWVSGWRLNADSVLWGGHKVFMVKPEEPFQPVKEATQL [T71R]
  area with substrate ENLAFQS: 0.0733
  area with substrate ENLDFQS: 0.0628
  area with substrate ENLHFQS: 0.0688
  area with substrate ENLIFQS: 0.081
  area with substrate ENLKFQS: 0.0607
  area with substrate ENLMFQS: 0.079
  area with substrate ENLNFQS: 0.203
  area with substrate ENLQFQS: 0.0877
  area with substrate ENLRFQS: 0.0872
  area with substrate ENLSFQS: 0.0665
  area with substrate ENLVFQS: 0.0861

## MGESLFKGPRDYNPISSSICHLTNESDGHTTSLYGIGFGPFIITNKHLFRRNNGTLVVQSLHGVFKVKDTTTHQQHLVDGRDMIIIRMPKDFPPFPQKLKFREPQREERICLVTTNFQTKSMSSMVSDTSCTFPSGDGIFWKHWIQTKDGQCGSPLVSTRDGFIVGIHSASNFTNTNNYFTSVPKNFMELLTNQEAQQWVSGWRLNADSVLWGGHKVFMVKPEEPFQPVKEATQL [L73H]
  area with substrate ENLAFQS: 0.0481
  area with substrate ENLDFQS: 0.04
  area with substrate ENLEFQS: 0.0601
  area with substrate ENLFFQS: 0.0559
  area with substrate ENLHFQS: 0.0428
  area with substrate ENLIFQS: 0.0572
  area with substrate ENLKFQS: 0.0517
  area with substrate ENLLFQS: 0.0775
  area with substrate ENLMFQS: 0.0597
  area with substrate ENLPFQS: 0.0363
  area with substrate ENLRFQS: 0.0514
  area with substrate ENLSFQS: 0.0549
  area with substrate ENLVFQS: 0.0421

## MGESLFKGPRDYNPISSSICHLTNESDGHTTSLYGIGFGPFIITNKHLFRRNNGTLVVQSLHGVFKVKDTTTNQQHLVDGRDMIIIRMPKDFPPFPQKLKFREPQREERICLVTTNFQTKSMSSMVSDTSCTFPSGDGIFWKHWIQTKDGQCGSPLVSTRDGFIVGIHSASNFTNTNNYFTSVPKNFMELLTNQEAQQWVSGWRLNADSVLWGGHKVFMVKPEEPFQPVKEATQL [L73N]
  area with substrate ENLAFQS: 0.0495
  area with substrate ENLCFQS: 0.0605
  area with substrate ENLDFQS: 0.0598
  area with substrate ENLFFQS: 0.064
  area with substrate ENLGFQS: 0.0511
  area with substrate ENLIFQS: 0.0538
  area with substrate ENLKFQS: 0.0659
  area with substrate ENLLFQS: 0.043
  area with substrate ENLNFQS: 0.0591
  area with substrate ENLPFQS: 0.0621
  area with substrate ENLRFQS: 0.0533
  area with substrate ENLSFQS: 0.0469
  area with substrate ENLWFQS: 0.0187

## MGESLFKGPRDYNPISSSICHLTNESDGHTTSLYGIGFGPFIITNKHLFRRNNGTLVVQSLHGVFKVKDTTTLAQHLVDGRDMIIIRMPKDFPPFPQKLKFREPQREERICLVTTNFQTKSMSSMVSDTSCTFPSGDGIFWKHWIQTKDGQCGSPLVSTRDGFIVGIHSASNFTNTNNYFTSVPKNFMELLTNQEAQQWVSGWRLNADSVLWGGHKVFMVKPEEPFQPVKEATQL [Q74A]
  area with substrate ENLAFQS: 0.0528
  area with substrate ENLDFQS: 0.0609
  area with substrate ENLEFQS: 0.0794
  area with substrate ENLFFQS: 0.0777
  area with substrate ENLLFQS: 0.0504
  area with substrate ENLMFQS: 0.049
  area with substrate ENLPFQS: 0.0522
  area with substrate ENLQFQS: 0.0807
  area with substrate ENLSFQS: 0.0646
  area with substrate ENLTFQS: 0.0806
  area with substrate ENLVFQS: 0.0733
  area with substrate ENLWFQS: 0.0913

## MGESLFKGPRDYNPISSSICHLTNESDGHTTSLYGIGFGPFIITNKHLFRRNNGTLVVQSLHGVFKVKDTTTLKQHLVDGRDMIIIRMPKDFPPFPQKLKFREPQREERICLVTTNFQTKSMSSMVSDTSCTFPSGDGIFWKHWIQTKDGQCGSPLVSTRDGFIVGIHSASNFTNTNNYFTSVPKNFMELLTNQEAQQWVSGWRLNADSVLWGGHKVFMVKPEEPFQPVKEATQL [Q74K]
  area with substrate ENLAFQS: 0.097
  area with substrate ENLDFQS: 0.0591
  area with substrate ENLEFQS: 0.0773
  area with substrate ENLFFQS: 0.0853
  area with substrate ENLKFQS: 0.0851
  area with substrate ENLNFQS: 0.0661
  area with substrate ENLPFQS: 0.0528
  area with substrate ENLRFQS: 0.0833
  area with substrate ENLSFQS: 0.066
  area with substrate ENLVFQS: 0.0638

## MGESLFKGPRDYNPISSSICHLTNESDGHTTSLYGIGFGPFIITNKHLFRRNNGTLVVQSLHGVFKVKDTTTLMQHLVDGRDMIIIRMPKDFPPFPQKLKFREPQREERICLVTTNFQTKSMSSMVSDTSCTFPSGDGIFWKHWIQTKDGQCGSPLVSTRDGFIVGIHSASNFTNTNNYFTSVPKNFMELLTNQEAQQWVSGWRLNADSVLWGGHKVFMVKPEEPFQPVKEATQL [Q74M]
  area with substrate ENLAFQS: 0.0642
  area with substrate ENLDFQS: 0.0705
  area with substrate ENLEFQS: 0.0844
  area with substrate ENLFFQS: 0.0743
  area with substrate ENLGFQS: 0.0738
  area with substrate ENLHFQS: 0.0663
  area with substrate ENLIFQS: 0.0983
  area with substrate ENLKFQS: 0.0698
  area with substrate ENLLFQS: 0.0749
  area with substrate ENLMFQS: 0.0643
  area with substrate ENLNFQS: 0.0778
  area with substrate ENLPFQS: 0.0665
  area with substrate ENLQFQS: 0.0777
  area with substrate ENLRFQS: 0.0674
  area with substrate ENLVFQS: 0.0831
  area with substrate ENLWFQS: 0.0655

## MGESLFKGPRDYNPISSSICHLTNESDGHTTSLYGIGFGPFIITNKHLFRRNNGTLVVQSLHGVFKVKDTTTLQQHCVDGRDMIIIRMPKDFPPFPQKLKFREPQREERICLVTTNFQTKSMSSMVSDTSCTFPSGDGIFWKHWIQTKDGQCGSPLVSTRDGFIVGIHSASNFTNTNNYFTSVPKNFMELLTNQEAQQWVSGWRLNADSVLWGGHKVFMVKPEEPFQPVKEATQL [L77C]
  area with substrate ENLAFQS: 0.0779
  area with substrate ENLCFQS: 0.0531
  area with substrate ENLDFQS: 0.0708
  area with substrate ENLEFQS: 0.0541
  area with substrate ENLFFQS: 0.09
  area with substrate ENLIFQS: 0.0548
  area with substrate ENLKFQS: 0.0784
  area with substrate ENLMFQS: 0.0644
  area with substrate ENLNFQS: 0.0602
  area with substrate ENLPFQS: 0.0627
  area with substrate ENLQFQS: 0.0585
  area with substrate ENLRFQS: 0.0584
  area with substrate ENLSFQS: 0.0443
